Experimental data from patent publication US11618753B2 (priority 2018, dated 2023).

Each compound was assayed on MLKL phosphorylation, HT29-L23 human colorectal adenocarcinoma cells (assay: cells). Conditions: read-out: pMLKL HCS Cell Assay (IC50, uM).

Row | SMILES | IC50 [µM]
1 | Nc1ncnn2c(-c3ccc(F)c(C(=O)Nc4cnn(Cc5ccccc5)c4)c3)cc(C(F)(F)F)c12 [Example 3, 5-[4-amino-5-(trifluoromethyl)pyrrolo[2,1-f][1,2,4]triazin-7-yl]-N-(1-benzyl-1H-pyrazol-4-yl)-2-fluorobenzamide] | 0.005
2 | Nc1ncnn2c(-c3cccc(C(=O)NCc4ccccc4Oc4ccccc4)c3)c(F)cc12 [Example 4, 3-{4-amino-6-fluoropyrrolo[2,1-f][1,2,4]triazin-7-yl}-N-[(2-phenoxyphenyl)methyl]benzamide] | 0.412
3 | N#Cc1cc(-c2cccc(C(=O)NCCC(O)c3ccccc3)c2)n2ncnc(N)c12 (stereo not shown) [Example 5, 3-{4-amino-5-cyanopyrrolo[2,1-f][1,2,4]triazin-7-yl}-N-(3-hydroxy-3-phenylpropyl)benzamide] | 0.016
4 | N#Cc1cc(-c2cccc(C(=O)Nc3cnn(Cc4ccccc4)c3)c2)n2ncnc(N)c12 [Example 6, 3-{4-amino-5-cyanopyrrolo[2,1-f][1,2,4]triazin-7-yl}-N-(1-benzyl-1H-pyrazol-4-yl)benzamide] | 0.03
5 | CC(CCNC(=O)c1cccc(-c2cc(C#N)c3c(N)ncnn23)c1)c1ccccc1 (stereo not shown) [Example 7, 3-{4-amino-5-cyanopyrrolo[2,1-f][1,2,4]triazin-7-yl}-N-(3-phenylbutyl)benzamide] | 0.062
6 | COc1ncc(-c2cc(F)c3c(N)ncnn23)cc1C(=O)Nc1cnn(Cc2ccccc2)c1 [Example 8, 5-{4-amino-5-fluoropyrrolo[2,1-f][1,2,4]triazin-7-yl}-N-(1-benzyl-1H-pyrazol-4-yl)-2-methoxypyridine-3-carboxamide] | 0.011
7 | COc1ncc(-c2cc(C(F)(F)F)c3c(N)ncnn23)cc1C(=O)NCC[C@H](O)c1ccc(Cl)cc1 [Example 10, 5-[4-amino-5-(trifluoromethyl)pyrrolo[2,1-f][1,2,4]triazin-7-yl]-N-[(3S)-3-(4-chlorophenyl)-3-hydroxypropyl]-2-methoxypyridine-3-carboxamide] | 0.0049
8 | COc1ncc(-c2cc(C(F)(F)F)c3c(N)ncnn23)cc1C(=O)NC1CCN(C(=O)OC(C)(C)C)C1 (stereo not shown) [Example 11, tert-butyl (35)-3-{5-[4-amino-5-(trifluoromethyl)pyrrolo[2,1-f][1,2,4]triazin-7-yl]-2-methoxypyridine-3-amido}pyrrolidine-1-carboxylate] | 0.153
9 | COc1ncc(-c2cc(C(F)(F)F)c3c(N)ncnn23)cc1C(=O)N[C@H]1CCN(C(=O)c2ccc(C)cc2)C1 [Example 12, 5-[4-amino-5-(trifluoromethyl)pyrrolo[2,1-f][1,2,4]triazin-7-yl]-2-methoxy-N-[(3S)-1-(4-methylbenzoyl)pyrrolidin-3-yl]pyridine-3-carboxamide] | 0.401
10 | Cc1ncc(-c2cc(C(F)(F)F)c3c(N)ncnn23)cc1C(=O)NCCC(O)(c1ccccc1)C(F)(F)F (stereo not shown) [Example 13, 5-[4-amino-5-(trifluoromethyl)pyrrolo[2,1-f][1,2,4]triazin-7-yl]-2-methyl-N-(4,4,4-trifluoro-3-hydroxy-3-phenylbutyl)pyridine-3-carboxamide] | 0.03
11 | Nc1ncnn2c(-c3cnc(F)c(C(=O)NCC[C@H](O)c4ccc(Cl)cc4)c3)cc(C(F)(F)F)c12 [Example 17, 5-[4-amino-5-(trifluoromethyl)pyrrolo[2,1-f][1,2,4]triazin-7-yl]-N-[(3S)-3-(4-chlorophenyl)-3-hydroxypropyl]-2-fluoropyridine-3-carboxamide] | 0.0098
12 | Nc1ncnn2c(-c3cncc(C(=O)NCCC(O)c4ccc(F)cc4)c3)cc(C(F)(F)F)c12 (stereo not shown) [Example 18, 5-[4-amino-5-(trifluoromethyl)pyrrolo[2,1-f][1,2,4]triazin-7-yl]-N-[3-(4-fluorophenyl)-3-hydroxypropyl]pyridine-3-carboxamide] | 0.024
13 | COc1ncc(-c2cc(C(F)(F)F)c3c(N)ncnn23)cc1C(=O)N[C@@H]1CN(C(=O)C2CCCC2)C[C@@H]1C [Example 19, 5-[4-amino-5-(trifluoromethyl)pyrrolo[2,1-f][1,2,4]triazin-7-yl]-N-[(3S,4S)-1-cyclopentanecarbonyl-4-methylpyrrolidin-3-yl]-2-methoxypyridine-3-carboxamide] | 0.047
14 | Cc1ncc(-c2cc(C(F)(F)F)c3c(N)ncnn23)cc1C(=O)N[C@@H]1CN(C(=O)C2CCCCC2)C[C@@H]1C [Example 21, 5-[4-amino-5-(trifluoromethyl)pyrrolo[2,1-f][1,2,4]triazin-7-yl]-N-[(3S,4S)-1-cyclohexanecarbonyl-4-methylpyrrolidin-3-yl]-2-methylpyridine-3-carboxamide] | 0.015
15 | Cc1ncc(-c2cc(C(F)(F)F)c3c(N)ncnn23)cc1C(=O)N[C@@H]1CN(C(=O)C2CCC(F)(F)C2)C[C@@H]1CF (stereo partly drawn) [Example 22, 5-[4-amino-5-(trifluoromethyl)pyrrolo[2,1-f][1,2,4]triazin-7-yl]-N-[(3S,4S)-1-(3,3-difluorocyclopentanecarbonyl)-4-(fluoromethyl)pyrrolidin-3-yl]-2-methylpyridine-3-carboxamide] | 0.167
16 | C[C@H]1CN(C(=O)C2CCC(F)(F)C2)C[C@H]1NC(=O)c1cc(-c2cc(C(F)(F)F)c3c(N)ncnn23)cnc1C(F)(F)F (stereo partly drawn) [Example 23, 5-[4-amino-5-(trifluoromethyl)pyrrolo[2,1-f][1,2,4]triazin-7-yl]-N-[(3S,4S)-1-(3,3-difluorocyclopentanecarbonyl)-4-methylpyrrolidin-3-yl]-2-(trifluoromethyl)pyridine-3-carboxamide] | 0.06
17 | C[C@H]1CN(C(=O)C2CCC(F)(F)CC2)C[C@H]1NC(=O)c1cc(-c2cc(C(F)(F)F)c3c(N)ncnn23)cnc1C(F)(F)F [Example 24, 5-[4-amino-5-(trifluoromethyl)pyrrolo[2,1-f][1,2,4]triazin-7-yl]-N-[(3S,4S)-1-(4,4-difluorocyclohexanecarbonyl)-4-methylpyrrolidin-3-yl]-2-(trifluoromethyl)pyridine-3-carboxamide] | 0.247
18 | Cc1ncc(-c2cc(C(F)(F)F)c3c(N)ncnn23)cc1C(=O)N[C@@H]1CN(C(=O)C2CCC(F)(F)CC2)C[C@@H]1F [Example 25, 5-[4-amino-5-(trifluoromethyl)pyrrolo[2,1-f][1,2,4]triazin-7-yl]-N-[(3R,4S)-1-(4,4-difluorocyclohexanecarbonyl)-4-fluoropyrrolidin-3-yl]-2-methylpyridine-3-carboxamide] | 0.071
19 | Nc1ncc(-c2cc(C(F)(F)F)c3c(N)ncnn23)cc1C(=O)NCC[C@@H](O)c1ccc(Cl)cc1 [Example 26, 2-amino-5-[4-amino-5-(trifluoromethyl)pyrrolo[2,1-f][1,2,4]triazin-7-yl]-N-[(3R)-3-(4-chlorophenyl)-3-hydroxypropyl]pyridine-3-carboxamide] | 0.0082
20 | COc1ncc(-c2cc(C(F)(F)F)c3c(N)ncnn23)cc1C(=O)NC1CN(C(=O)c2ccc(F)cc2)CC1F (stereo not shown) [Example 27, 5-[4-amino-5-(trifluoromethyl)pyrrolo[2,1-f][1,2,4]triazin-7-yl]-N-[4-fluoro-1-(4-fluorobenzoyl)pyrrolidin-3-yl]-2-methoxypyridine-3-carboxamide] | 0.099
21 | COc1ncc(-c2cc(C(F)(F)F)c3c(N)ncnn23)cc1C(=O)NCC[C@@H](OC)c1ccc(Cl)cc1 [Example 28, 5-[4-amino-5-(trifluoromethyl)pyrrolo[2,1-f][1,2,4]triazin-7-yl]-N-[(3R)-3-(4-chlorophenyl)-3-methoxypropyl]-2-methoxypyridine-3-carboxamide] | 0.0031
22 | COc1ncc(-c2cc(C(F)(F)F)c3c(N)ncnn23)cc1C(=O)NCC[C@H](OC)c1ccc(Cl)cc1 [Example 29, 5-[4-amino-5-(trifluoromethyl)pyrrolo[2,1-f][1,2,4]triazin-7-yl]-N-[(3S)-3-(4-chlorophenyl)-3-methoxypropyl]-2-methoxypyridine-3-carboxamide] | 0.106
23 | CNc1ncc(-c2cc(C(F)(F)F)c3c(N)ncnn23)cc1C(=O)NCC[C@H](O)c1ccc(Cl)cc1 [Example 30, 5-[4-amino-5-(trifluoromethyl)pyrrolo[2,1-f][1,2,4]triazin-7-yl]-N-[(3S)-3-(4-chlorophenyl)-3-hydroxypropyl]-2-(methylamino)pyridine-3-carboxamide] | 0.013
24 | COc1ncc(-c2cc(C(F)(F)F)c3c(N)ncnn23)cc1C(=O)N[C@@H]1CN(C(=O)C2CC(F)(F)C2)C[C@@H]1F [Example 31-1, 5-[4-amino-5-(trifluoromethyl)pyrrolo[2,1-f][1,2,4]triazin-7-yl]-N-[1-(3,3-difluorocyclobutanecarbonyl)-(3R,4S)-4-fluoropyrrolidin-3-yl]-2-methoxypyridine-3-carboxamide] | 0.013
25 | COc1ncc(-c2cc(Cl)c3c(N)ncnn23)cc1C(=O)Nc1cnn(Cc2ccccc2)c1 [Example 33, 5-{4-amino-5-chloropyrrolo[2,1-f][1,2,4]triazin-7-yl}-N-(1-benzyl-1H-pyrazol-4-yl)-2-methoxypyridine-3-carboxamide] | 0.034
26 | COc1ncc(-c2cc(C(F)(F)F)c3c(N)ncnn23)cc1C(=O)N[C@@H]1CN(C(=O)C2CCC(F)(F)C2)C[C@@H]1F (stereo partly drawn) [Example 34, 5-[4-amino-5-(trifluoromethyl)pyrrolo[2,1-f][1,2,4]triazin-7-yl]-N-[1-(3,3-difluorocyclopentanecarbonyl)-(3R,4S)4-fluoropyrrolidin-3-yl]-2-methoxypyridine-3-carboxamide] | 0.028
27 | CC(C)(C)n1cc(NC(=O)c2cc(-c3cc(C(F)(F)F)c4c(N)ncnn34)cnc2N)cn1 [Example 35, 2-amino-5-[4-amino-5-(trifluoromethyl)pyrrolo[2,1-f][1,2,4]triazin-7-yl]-N-(1-tert-butyl-1H-pyrazol-4-yl)pyridine-3-carboxamide] | 0.104
28 | COc1ncc(-c2cc(C)c3c(N)ncnn23)cc1C(=O)NCC[C@H](O)c1ccc(Cl)cc1 [Example 38, 5-{4-amino-5-methylpyrrolo[2,1-f][1,2,4]triazin-7-yl}-N-[(3S)-3-(4-chlorophenyl)-3-hydroxypropyl]-2-methoxypyridine-3-carboxamide] | 0.0084
